{"source": "paper PMC4336329", "about": "(PLoS ONE, 2015)", "note": "The campaign covered roughly 310,000 compounds. About 14,000 (4.5%) showed an effect of 50% or more. The effect is printed as a negative number. The list shows a part of the results."}
{"biological_target": "human ether-à-go-go-related gene (hERG) potassium channel (human, UniProt Q12809)", "sequence (Q12809 whole entry, looked up)": "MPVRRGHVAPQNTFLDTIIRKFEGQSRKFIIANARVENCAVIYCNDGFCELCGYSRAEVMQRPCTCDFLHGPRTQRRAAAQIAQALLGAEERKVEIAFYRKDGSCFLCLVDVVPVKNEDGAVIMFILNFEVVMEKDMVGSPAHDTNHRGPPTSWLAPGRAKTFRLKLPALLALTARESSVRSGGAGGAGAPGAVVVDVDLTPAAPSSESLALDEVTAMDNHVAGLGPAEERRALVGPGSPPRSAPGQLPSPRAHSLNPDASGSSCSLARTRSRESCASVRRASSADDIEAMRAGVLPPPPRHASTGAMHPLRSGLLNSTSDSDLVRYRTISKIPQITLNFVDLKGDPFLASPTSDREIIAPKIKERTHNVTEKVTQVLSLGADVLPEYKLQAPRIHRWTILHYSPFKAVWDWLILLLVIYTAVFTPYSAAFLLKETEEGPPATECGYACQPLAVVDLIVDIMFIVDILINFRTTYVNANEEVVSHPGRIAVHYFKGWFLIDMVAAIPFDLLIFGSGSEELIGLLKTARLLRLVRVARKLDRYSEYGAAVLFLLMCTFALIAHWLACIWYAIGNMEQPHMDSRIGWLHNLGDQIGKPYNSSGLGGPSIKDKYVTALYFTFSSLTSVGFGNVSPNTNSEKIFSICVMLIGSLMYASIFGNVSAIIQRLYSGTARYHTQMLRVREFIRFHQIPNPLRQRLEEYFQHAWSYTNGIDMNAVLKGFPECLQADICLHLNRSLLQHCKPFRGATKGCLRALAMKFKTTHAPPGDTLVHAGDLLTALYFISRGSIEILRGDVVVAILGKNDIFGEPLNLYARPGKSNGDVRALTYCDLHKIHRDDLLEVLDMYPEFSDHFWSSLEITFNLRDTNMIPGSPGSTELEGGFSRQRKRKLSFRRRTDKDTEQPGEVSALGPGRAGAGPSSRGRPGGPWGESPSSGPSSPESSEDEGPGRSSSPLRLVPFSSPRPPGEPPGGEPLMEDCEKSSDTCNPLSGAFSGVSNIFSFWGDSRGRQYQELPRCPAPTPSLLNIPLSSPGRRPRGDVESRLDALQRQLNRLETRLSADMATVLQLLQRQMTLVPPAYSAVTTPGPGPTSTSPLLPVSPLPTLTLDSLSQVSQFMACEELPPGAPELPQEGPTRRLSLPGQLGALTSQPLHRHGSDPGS", "experiment": "primary screen, population patch clamp on CHO cells stably expressing hERG", "units": {"hERG current change (%, negative = inhibition) at 10uM": "%"}}
{"compound": "CC(NC(=O)c1ccco1)c1cccc2ccccc12", "note": "(stereo not drawn);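 note: peak tail current of the secondary pulse compared with the same well before compound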", "hERG current change (%, negative = inhibition) at 10uM": -13.5}
{"compound": "CC(C)OC(=O)NCN1C(=O)C2C3C=CC(C3)C2C1=O", "note": "(stereo not drawn)", "hERG current change (%, negative = inhibition) at 10uM": -0.869}
{"compound": "Cn1c(=O)c(C(=O)CSc2ccccc2)c(N)n(Cc2ccccc2)c1=O", "hERG current change (%, negative = inhibition) at 10uM": 20.5}
{"compound": "CC1CCN(S(=O)(=O)c2cccc(C(=O)N(C)C3CCS(=O)(=O)C3)c2)CC1", "note": "(stereo not drawn)", "hERG current change (%, negative = inhibition) at 10uM": 11.7}
{"compound": "COc1ccc(OC)c(CNc2ccc(F)c(Cl)c2)c1", "hERG current change (%, negative = inhibition) at 10uM": 2.7}
{"compound": "COc1ccc(CCn2c(-c3ccc(OC)cc3)nc3c(c(=O)c4ccccc4n3C)c2=O)cc1", "hERG current change (%, negative = inhibition) at 10uM": 11.4}
{"compound": "CC(C)CC(NC(N)=O)C(=O)OCC(=O)Nc1ccc(OC(F)F)cc1", "note": "(stereo not drawn)", "hERG current change (%, negative = inhibition) at 10uM": -12.2}
{"compound": "COc1ccccc1NC(=O)c1c(C)oc2c1CCCC2", "hERG current change (%, negative = inhibition) at 10uM": 4.78}
{"compound": "NC(=O)Cn1nnc(-c2ccc(NC(=O)c3ccc(F)cc3)cc2)n1", "hERG current change (%, negative = inhibition) at 10uM": -1.95}
{"compound": "Cc1ccc(NC(=O)CSc2n[nH]c(C)c2[N+](=O)[O-])cc1", "hERG current change (%, negative = inhibition) at 10uM": -1.27}
{"compound": "Cn1c(CSCc2ccc(Cl)c(Cl)c2)n[nH]c1=S", "hERG current change (%, negative = inhibition) at 10uM": -16.6}
{"compound": "CC(C)CNc1c(N)c(=O)oc2ccccc12", "hERG current change (%, negative = inhibition) at 10uM": -2.67}
{"compound": "O=C(c1ccccc1)c1ccc(N2CCOCC2)c(F)c1", "hERG current change (%, negative = inhibition) at 10uM": -1.04}
{"compound": "CCOC(=O)C1CCCN(c2c(NCCN3CCCCC3CC)c(=O)c2=O)C1", "note": "(stereo not drawn)", "hERG current change (%, negative = inhibition) at 10uM": 5.19}
{"compound": "COc1cccc(C2c3[nH]c4ccccc4c3C[C@H]3C(=O)N(C4CC4)CC(=O)N23)c1", "note": "(stereo partly drawn)", "hERG current change (%, negative = inhibition) at 10uM": -13.1}
{"compound": "COc1ccc(CCN2C(=O)CC(C(N)=O)SC2=Nc2ccc(F)cc2)cc1OC", "note": "(stereo not drawn)", "hERG current change (%, negative = inhibition) at 10uM": -11.5}
{"compound": "CNC(=O)N(O)C1N(/N=C/c2cccs2)C(=S)SC1(C)C", "note": "(stereo not drawn)", "hERG current change (%, negative = inhibition) at 10uM": 16.1}
{"compound": "Oc1ccc(NCc2cccs2)cc1", "hERG current change (%, negative = inhibition) at 10uM": -1.71}
{"compound": "Cn1c(=O)c2c(nc(N/N=C/c3cccnc3)n2Cc2ccc(F)cc2)n(C)c1=O", "hERG current change (%, negative = inhibition) at 10uM": -16.8}
{"compound": "COc1cccc(/C=N/Nc2nn3cnnc3c3ccccc23)c1", "hERG current change (%, negative = inhibition) at 10uM": -20.4}
{"compound": "CCOC(=O)C1(S(=O)(=O)c2ccc(Cl)cc2)CCN(Cc2ccc(Cl)cc2)CC1", "hERG current change (%, negative = inhibition) at 10uM": 14.7}
{"compound": "Cc1cnccc1CNC(=O)C1CCC(=O)N(Cc2ccc(Cl)cc2)C1", "note": "(stereo not drawn)", "hERG current change (%, negative = inhibition) at 10uM": -44.7}
{"compound": "CCOc1ccc(C(C)=O)cc1N1C(=O)C2C(C1=O)C1C=CC2C12CC2", "note": "(stereo not drawn)", "hERG current change (%, negative = inhibition) at 10uM": 14.9}
{"compound": "COc1cc(N(Cc2ccccc2)Cc2ccccc2)c2ncn(C(C)C)c2c1", "hERG current change (%, negative = inhibition) at 10uM": 6.37}
{"compound": "CCOc1ncccc1C(=O)OC(C)C(=O)Nc1ccc(CC)cc1", "note": "(stereo not drawn)", "hERG current change (%, negative = inhibition) at 10uM": 27.9}
{"compound": "Cc1csc(SCC(=O)Nc2cc(C(C)(C)C)nn2-c2ccccc2)n1", "hERG current change (%, negative = inhibition) at 10uM": -32.2}
{"compound": "CC1CN(C(=S)NC(=O)c2ccc([N+](=O)[O-])cc2)CC(C)O1", "note": "(stereo not drawn)", "hERG current change (%, negative = inhibition) at 10uM": -1.58}
{"compound": "CCC1CCCCN1CCCNC(=O)c1cn(CC)c2ccc(S(=O)(=O)N3CCc4ccccc4C3)cc2c1=O", "note": "(stereo not drawn)", "hERG current change (%, negative = inhibition) at 10uM": -72}
{"compound": "CCOC(=O)c1c(C)[nH]c(C(=O)OCc2ccccc2F)c1C", "hERG current change (%, negative = inhibition) at 10uM": 22.6}
{"compound": "CC(C)OC(=O)c1nnn(-c2nonc2N)c1CN1CCCCCC1", "hERG current change (%, negative = inhibition) at 10uM": -12}
{"compound": "CCN(CC)S(=O)(=O)c1ccc(N=Nc2c(C)[nH]n(C(N)=S)c2=O)cc1", "hERG current change (%, negative = inhibition) at 10uM": -30.1}
{"compound": "CC1CCc2cc(F)ccc2N1C(=O)c1cnc2sccn2c1=O", "note": "(stereo not drawn)", "hERG current change (%, negative = inhibition) at 10uM": 18.5}
{"compound": "Cc1cc(C)c(NC(=O)C2CCCN2C)c(C)c1", "note": "(stereo not drawn)", "hERG current change (%, negative = inhibition) at 10uM": 9.43}
{"compound": "CC(C)CC(=O)Nc1ccc(-c2cn3ccsc3n2)cc1", "hERG current change (%, negative = inhibition) at 10uM": 13.8}
{"compound": "Cc1c(C(=O)OC(C)C)sc2nc[nH]c(=O)c12", "hERG current change (%, negative = inhibition) at 10uM": 0.594}
{"compound": "COc1ccc(N2CCN(C(CNC(=O)c3ccc4c(c3)OCO4)c3ccco3)CC2)cc1", "note": "(stereo not drawn)", "hERG current change (%, negative = inhibition) at 10uM": 8.39}
{"compound": "Cc1ccc(OCC(=O)Nc2ccc(N(C)C)cc2)cc1", "hERG current change (%, negative = inhibition) at 10uM": 4.38}
{"compound": "CCCN1Cc2cccc(C(=O)N3CCN(c4cc(Cl)ccc4C)CC3)c2C1=O", "hERG current change (%, negative = inhibition) at 10uM": -52.5}
{"compound": "CC(=O)C1=C(Nc2ccccc2)CC(C)(O)C(C(C)=O)C1c1ccccc1", "note": "(stereo not drawn)", "hERG current change (%, negative = inhibition) at 10uM": -5.43}
{"compound": "CN(CC(=O)Nc1ccccc1Br)C(=O)CCCSc1nc2ccccc2[nH]1", "hERG current change (%, negative = inhibition) at 10uM": -6.04}
{"compound": "COc1cc(OC)cc(C(=O)NC(C)c2ccc(Br)cc2)c1", "note": "(stereo not drawn)", "hERG current change (%, negative = inhibition) at 10uM": -0.889}
{"compound": "Cc1ccc2c(c1)c(N=Nc1cccc(C(=O)O)c1)c(O)n2C", "hERG current change (%, negative = inhibition) at 10uM": -0.932}
{"compound": "CCOC(=O)C1C(=O)CC(C)(O)C(C(=O)OCC)C1c1ccc(C)s1", "note": "(stereo not drawn)", "hERG current change (%, negative = inhibition) at 10uM": 2.99}
{"compound": "O=C(/C=C/c1ccco1)N(c1ccccn1)c1ccccn1", "hERG current change (%, negative = inhibition) at 10uM": 9.53}
{"compound": "CCCc1nc2ccc([N+](=O)[O-])cc2[nH]1", "hERG current change (%, negative = inhibition) at 10uM": 15.3}
{"compound": "O=C(NCc1cccs1)C1CCCN(S(=O)(=O)c2ccc(Br)s2)C1", "note": "(stereo not drawn)", "hERG current change (%, negative = inhibition) at 10uM": 7.6}
{"compound": "Cc1ccc2nc(NC(=O)C3CCCN3C(=O)OC(C)(C)C)sc2c1", "note": "(stereo not drawn)", "hERG current change (%, negative = inhibition) at 10uM": 1.31}
{"compound": "CCCCN1CCC(O)(c2ccccc2)C(C(=O)c2ccccc2)C1", "note": "(stereo not drawn)", "hERG current change (%, negative = inhibition) at 10uM": -11.7}
{"compound": "Nc1ccc(S(=O)(=O)[O-])cn1.[Na+]", "hERG current change (%, negative = inhibition) at 10uM": 26.1}
{"compound": "COc1ccc(Cc2nnc(SC(C)C(=O)Nc3ccc(C(N)=O)cc3)o2)cc1", "note": "(stereo not drawn)", "hERG current change (%, negative = inhibition) at 10uM": -11.9}
{"compound": "COc1ccc(CN2CCC(Oc3cc(C(=O)NC4CC4)ccc3OC)CC2)c(O)c1", "hERG current change (%, negative = inhibition) at 10uM": -77.3}
{"compound": "O=C(OCC(=O)N1CCN(c2ccccc2)CC1)C1=COCCO1", "hERG current change (%, negative = inhibition) at 10uM": 21.8}
{"compound": "CCN(CC)C(=O)CSc1nc(O)c(Cc2ccccc2)c(=O)n1-c1ccc(C)cc1", "hERG current change (%, negative = inhibition) at 10uM": 20}
{"compound": "CS(=O)(=O)c1cccc(NC(=O)CSc2nnc3n2CCCCC3)c1", "hERG current change (%, negative = inhibition) at 10uM": 10.3}
{"compound": "COc1ccc(-c2cc(=O)oc3cc(OC(=O)C4CCCCC4)ccc23)cc1", "hERG current change (%, negative = inhibition) at 10uM": 7.87}
{"compound": "Br.COc1cccc(Nc2nc(-c3cccc(N4C(=O)c5ccccc5C4=O)c3)cs2)c1", "hERG current change (%, negative = inhibition) at 10uM": 17.5}
{"compound": "CCCNC(=O)COC(=O)c1[nH]c(C)c(C(=O)OCC)c1C", "hERG current change (%, negative = inhibition) at 10uM": 7.57}
